About 160 (5.9%) of roughly 2,700 compounds showed an effect of 50% or more. The list shows a part of the results.
Target: Nonstructural protein 3 (Zika virus) (UniProt A0A024AXB9)
[1] = PRVABC59, Concentration 50.0 uM, Number of replicates 1.0
[2] = PRVABC59, Concentration 10.0 uM, Number of replicates 1.0
[3] = PRVABC59, Concentration 15.0 uM, Number of replicates 1.0

Chain of UniProt A0A024AXB9 (A0A024AXB9 as listed by the source): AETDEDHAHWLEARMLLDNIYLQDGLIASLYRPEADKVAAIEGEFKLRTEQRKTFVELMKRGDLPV

In the case of `CC(C)Nc1nc2ccc(C(=O)Nc3cncc(F)c3)cc2[nH]1`, the inhibition (PRVABC59, Concentration 49.5 uM, Number of replicates 2.0, Standard deviation 1.4741646134188342 %) is reported as -1.02%, the inhibition (PRVABC59, Concentration 99.01 uM, Number of replicates 2.0, Standard deviation 2.287675471918688 %) is reported as 0.621% and the inhibition (PRVABC59, Concentration 198.0 uM, Number of replicates 2.0, Standard deviation 1.5855689928394727 %) is reported as 4.79%.
In the case of `Cc1nc(C)c(CN2CCC(c3c[nH]c4cccnc34)CC2)s1`, the inhibition (PRVABC59, Concentration 49.5 uM, Number of replicates 2.0, Standard deviation 2.1874753856814944 %) is reported as -6.55%.
With `Cc1cc(CO)c2cccc(NC(=O)c3ccno3)c2n1` the inhibition (PRVABC59, Concentration 49.95 uM, Number of replicates 2.0, Standard deviation 1.4000623365170772 %) was 5.33% and the inhibition (PRVABC59, Concentration 99.9 uM, Number of replicates 2.0, Standard deviation 2.002239649301327 %) was 19.5%.
Compound `O=Cc1ccc(N2CCC(C(=O)Nc3nc(Cl)nc4nc[nH]c34)CC2)cc1` has an inhibition [1] of 22.6%.
In the case of `Cc1cc(CO)c2cccc(Cc3cccc(C(=O)N[C@H](Cc4c[nH]cn4)C(=O)O)c3)c2n1`, the inhibition (PRVABC59, Concentration 49.95 uM, Number of replicates 2.0, Standard deviation 1.4262210309264547 %) is reported as -4.51% and the inhibition (PRVABC59, Concentration 99.9 uM, Number of replicates 2.0, Standard deviation 1.1168569567330493 %) is reported as -0.957%.
With `C[C@H](NC(=O)C1CCN(c2ccc(C=O)cc2)CC1)c1ccc(Cl)cc1Cl` the inhibition [2] was 9.85%.
In the case of `Cc1cc(CO)c2cccc(Cc3ccccc3C(=O)N3CCO[C@@H](CN)C3)c2n1`, the inhibition (PRVABC59, Concentration 99.9 uM, Number of replicates 2.0, Standard deviation 2.9992587541792743 %) is reported as -6.8%.
`Cc1cc(-c2nn(C)cc2NC(=O)c2ccccc2C(F)(F)F)[nH]n1` was tested, and the inhibition (PRVABC59, Concentration 49.5 uM, Number of replicates 2.0, Standard deviation 1.8946804704330402 %) was -3.15%, the inhibition (PRVABC59, Concentration 99.01 uM, Number of replicates 2.0, Standard deviation 0.666066751064398 %) was -1.39% and the inhibition (PRVABC59, Concentration 198.0 uM, Number of replicates 2.0, Standard deviation 1.3743584908968294 %) was 2.3%.
Compound `Cc1nc2cc(CN3CCC[C@H](c4cc5ccccc5[nH]4)C3)ccc2[nH]1` has an inhibition (PRVABC59, Concentration 49.5 uM, Number of replicates 2.0, Standard deviation 1.183547569395641 %) of 3.3%, an inhibition (PRVABC59, Concentration 99.01 uM, Number of replicates 2.0, Standard deviation 1.7843151543908982 %) of 8.95% and an inhibition (PRVABC59, Concentration 198.0 uM, Number of replicates 2.0, Standard deviation 2.0307369880408768 %) of 16%.
Work on `CC1CCN(CCCCNC(=O)c2cc(Cl)ccc2NS(=O)(=O)c2ccc(Oc3ccccc3Cl)cc2)CC1` yielded an inhibition [3] of 19%.
Work on `Cc1cnccc1NC(=O)CNC(=O)CC(C)C` yielded an inhibition (PRVABC59, Concentration 49.5 uM, Number of replicates 2.0, Standard deviation 2.4034449411705934 %) of -2.35%, an inhibition (PRVABC59, Concentration 99.01 uM, Number of replicates 2.0, Standard deviation 3.1298748722876275 %) of -2.94% and an inhibition (PRVABC59, Concentration 198.0 uM, Number of replicates 2.0, Standard deviation 2.7521313401383747 %) of -2.55%.
`Cc1cnccc1NC(=O)c1ccccc1OCc1ccccc1` was tested, and the inhibition (PRVABC59, Concentration 49.5 uM, Number of replicates 2.0, Standard deviation 1.0351957624059638 %) was -0.547%, the inhibition (PRVABC59, Concentration 99.01 uM, Number of replicates 2.0, Standard deviation 1.0038673777050886 %) was -2.12% and the inhibition (PRVABC59, Concentration 198.0 uM, Number of replicates 2.0, Standard deviation 2.6833364301600433 %) was -4.2%.
`Cc1cnccc1NC(=O)c1ccnc(C(C)C)n1` showed an inhibition (PRVABC59, Concentration 49.5 uM, Number of replicates 2.0, Standard deviation 1.345795845615512 %) of 1.22%, an inhibition (PRVABC59, Concentration 99.01 uM, Number of replicates 2.0, Standard deviation 3.3811519385923643 %) of 2.95% and an inhibition (PRVABC59, Concentration 198.0 uM, Number of replicates 2.0, Standard deviation 2.6839011979300893 %) of 6.25%.
Work on `Cc1cc(CO)c2cccc(CC(=O)Nc3nonc3C(N)=O)c2n1` yielded an inhibition (PRVABC59, Concentration 49.95 uM, Number of replicates 2.0, Standard deviation 0.05598719921229546 %) of 82% and an inhibition (PRVABC59, Concentration 99.9 uM, Number of replicates 2.0, Standard deviation 1.0790078750483718 %) of 86.1%.
`Nc1ccc(C(=O)Nc2nc3ccccc3s2)nc1` gave an inhibition (PRVABC59, Concentration 198.0 uM, Number of replicates 2.0, Standard deviation 0.01391082023211164 %) of 1.18%.
Work on `CCOc1ccc(CCNC(=O)c2cc(Cl)ccc2NS(=O)(=O)c2ccc(Oc3ccccc3Cl)cc2)cc1OC` yielded an inhibition [3] of 19.1%.
Work on `O=C(c1cc(Cl)ccc1NS(=O)(=O)c1ccc(Oc2ccccc2Cl)cc1)N1CCC(CCN2CCCC2)CC1` yielded an inhibition [3] of 10.8%.
In the case of `NCc1cccc(NC(=O)CCN2C(=O)OCc3ccccc32)c1`, the inhibition (PRVABC59, Concentration 49.5 uM, Number of replicates 2.0, Standard deviation 3.0701678343726093 %) is reported as -2.59%, the inhibition (PRVABC59, Concentration 99.01 uM, Number of replicates 2.0, Standard deviation 2.6435278888045337 %) is reported as -2.9% and the inhibition (PRVABC59, Concentration 198.0 uM, Number of replicates 2.0, Standard deviation 2.687832866693428 %) is reported as -0.913%.
In the case of `O=Cc1ccc(N2CCC(C(=O)Nc3ccc(Br)nc3)CC2)cc1`, the inhibition [1] is reported as 20.6%.
In the case of `O=C(NCc1cocn1)c1cc(Cl)ccc1NS(=O)(=O)c1ccc(Oc2ccccc2Cl)cc1`, the inhibition (PRVABC59, Concentration 49.5 uM, Number of replicates 2.0, Standard deviation 2.920306580150363 %) is reported as -7.64%.
Work on `O=C(c1cc(Cl)ccc1NS(=O)(=O)c1ccc(Oc2ccccc2Cl)cc1)N1CCN(c2ccc(Br)cn2)CC1` yielded an inhibition [3] of 18.6%.
Compound `CS(=O)(=O)C1CCN(C(=O)C2CCN(c3ccc(C=O)cc3)CC2)CC1` has an inhibition [1] of 21.9%.
Compound `O=Cc1ccc(N2CCC(C(=O)Nc3ccc4cc(Br)ccc4c3)CC2)cc1` has an inhibition [1] of 17.1%.
In the case of `COc1ccc(CNC(=O)c2cc(Cl)ccc2NS(=O)(=O)c2ccc(Oc3ccccc3Cl)cc2)cc1F`, the inhibition [3] is reported as 26.5%.
`CC(C)c1nc(CN(C)C(=O)C2CCN(c3ccc(C=O)cc3)CC2)cs1` gave an inhibition [1] of 26.5%.
For `COc1cc(COCc2cccnc2OC)nc(N2CCNCC2)n1`, the inhibition (PRVABC59, Concentration 49.5 uM, Number of replicates 2.0, Standard deviation 0.5592032480776322 %) was 0.921%, the inhibition (PRVABC59, Concentration 99.01 uM, Number of replicates 2.0, Standard deviation 0.7551145704513664 %) was 3.73% and the inhibition (PRVABC59, Concentration 198.0 uM, Number of replicates 2.0, Standard deviation 0.007608349093186591 %) was 4.1%.
`Cc1cc(-c2ccccc2C(=O)Nc2cnn(C)c2)cnc1F` was tested, and the inhibition (PRVABC59, Concentration 49.5 uM, Number of replicates 2.0, Standard deviation 2.713302417982804 %) was -0.745%, the inhibition (PRVABC59, Concentration 99.01 uM, Number of replicates 2.0, Standard deviation 2.16573844358994 %) was -2.37% and the inhibition (PRVABC59, Concentration 198.0 uM, Number of replicates 2.0, Standard deviation 2.214774041707614 %) was -1.54%.
`CC(C)(CO)NC(=O)c1cc(Cl)cc(NC(=O)c2ccccc2Oc2cccnc2)c1` gave an inhibition (PRVABC59, Concentration 49.5 uM, Number of replicates 2.0, Standard deviation 1.291469927657546 %) of -0.385%, an inhibition (PRVABC59, Concentration 99.01 uM, Number of replicates 2.0, Standard deviation 0.5468063004971834 %) of 2.03% and an inhibition (PRVABC59, Concentration 198.0 uM, Number of replicates 2.0, Standard deviation 0.07914301495896872 %) of 5.14%.
In the case of `O=C(Nc1ncc(F)cc1Br)c1cc(Cl)ccc1NS(=O)(=O)c1ccc(Oc2ccccc2Cl)cc1`, the inhibition [3] is reported as 23.4%.
Compound `O=Cc1ccc(N2CCC(C(=O)NCCC(=O)NC3CCCCC3)CC2)cc1` has an inhibition [1] of 24%.
Compound `NCc1cccc(NC(=O)[C@H]2COCCN2C(=O)OCc2ccccc2)c1` has an inhibition (PRVABC59, Concentration 49.5 uM, Number of replicates 2.0, Standard deviation 1.7393789010050076 %) of 1.96%, an inhibition (PRVABC59, Concentration 99.01 uM, Number of replicates 2.0, Standard deviation 3.9759576832783616 %) of 2.52% and an inhibition (PRVABC59, Concentration 198.0 uM, Number of replicates 2.0, Standard deviation 2.8125429890667983 %) of 4.31%.
Work on `CN(Cc1cccc(F)c1F)C(=O)c1cc(Cl)ccc1NS(=O)(=O)c1ccc(Oc2ccccc2Cl)cc1` yielded an inhibition [3] of 31.2%.
For `O=Cc1ccc(N2CCC(C(=O)Nc3cccc(Br)c3)CC2)cc1`, the inhibition [1] was 23.9%.
With `COc1ccc(CNC(=O)c2cc(Cl)ccc2NS(=O)(=O)c2ccc(Oc3ccccc3Cl)cc2)c(OC)c1` the inhibition [3] was 20.6%.
Work on `Cc1nn(C)nc1-c1nn(C)cc1NC(=O)c1ccccc1C(F)(F)F` yielded an inhibition (PRVABC59, Concentration 49.5 uM, Number of replicates 2.0, Standard deviation 2.2519783556354156 %) of -2.6%, an inhibition (PRVABC59, Concentration 99.01 uM, Number of replicates 2.0, Standard deviation 1.3148531256519356 %) of -2.5% and an inhibition (PRVABC59, Concentration 198.0 uM, Number of replicates 2.0, Standard deviation 2.1602443068586057 %) of -3.44%.
`COc1nc(Br)cnc1NC(=O)c1cc(Cl)ccc1NS(=O)(=O)c1ccc(Oc2ccccc2Cl)cc1` gave an inhibition [3] of 20.7%.
With `O=C(c1cc(Cl)ccc1NS(=O)(=O)c1ccc(Oc2ccccc2Cl)cc1)N1CCC(O)(c2ccc(Br)cc2)CC1` the inhibition [3] was 23.5%.
`O=C(N[C@H]1CC(=O)N(c2ccccc2Cl)C1)c1cc(Cl)ccc1NS(=O)(=O)c1ccc(Oc2ccccc2Cl)cc1` gave an inhibition [3] of 17.8%.
`O=Cc1ccc(N2CCC(C(=O)Nc3cc(Cl)c(F)cc3F)CC2)cc1` gave an inhibition [1] of 26.1%.
`N#C[C@@H](NC(=O)C1CCN(c2ccc(C=O)cc2)CC1)c1ccc(F)cc1` was tested, and the inhibition [2] was 25.4%.
